According to the supplement of paper PMC3334620:
The full ranking holds about 33,000 sequences; the median of “E-score (-0.5 to 0.5)” is about -0.012, and the highest 2% start at about 0.27. This is one part of the list.

Biological target: T1, Vhr1 (UniProt P40522)
T1 sequence: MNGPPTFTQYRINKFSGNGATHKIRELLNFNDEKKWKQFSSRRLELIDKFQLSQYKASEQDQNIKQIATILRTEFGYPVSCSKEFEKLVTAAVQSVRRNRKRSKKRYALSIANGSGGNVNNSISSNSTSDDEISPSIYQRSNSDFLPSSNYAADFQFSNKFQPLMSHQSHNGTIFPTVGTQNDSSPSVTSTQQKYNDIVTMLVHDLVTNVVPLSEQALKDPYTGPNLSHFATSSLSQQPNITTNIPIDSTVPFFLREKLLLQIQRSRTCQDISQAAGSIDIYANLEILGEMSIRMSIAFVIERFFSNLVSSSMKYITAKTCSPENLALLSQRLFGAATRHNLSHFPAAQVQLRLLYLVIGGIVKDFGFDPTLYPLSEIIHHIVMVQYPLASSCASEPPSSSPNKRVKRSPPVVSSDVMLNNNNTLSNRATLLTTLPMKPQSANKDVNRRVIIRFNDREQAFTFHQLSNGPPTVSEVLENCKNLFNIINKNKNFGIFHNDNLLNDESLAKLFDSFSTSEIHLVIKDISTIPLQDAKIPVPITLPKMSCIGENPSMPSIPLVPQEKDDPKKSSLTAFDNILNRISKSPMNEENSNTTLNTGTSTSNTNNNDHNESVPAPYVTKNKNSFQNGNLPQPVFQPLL
Test: PBM E-score (8-mer binding enrichment) (E-score (-0.5 to 0.5)); higher = stronger / more preferred TF binding; most listed sequences are background and not binding sites
Conditions: protein concentration: 200 nM; construct: GST-full length
Method in brief: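 Detection of bound protein used fluorescent anti-GST, with scans normalised by masliner. The proteins were GST-tagged yeast transcription factors applied at about 100-200 nM to universal all-10-mer Agilent arrays made double-stranded by primer extension. Each ungapped eight-base word, pooled with its reverse complement, was scored with an E-score from the Universal PBM Analysis Suite.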

| Sequence | PBM E-score |
| --- | --- |
| GGGGAATA | -0.161 |
| TAAAACAA | -0.284 |
| GAGTGAGC | 0.072 |
| GGGAACAA | 0.0885 |
| CGAGGGAA | 0.0257 |
| CTATTGGC | -0.126 |
| AGTCCGCG | 0.107 |
| AAGGTCAG | -0.221 |
| CCCACGAC | 0.0264 |
| TCGGGGAA | 0.104 |
| CGGGTTAG | -0.167 |
| AATTGAGC | -0.0499 |
| CCAACTCC | 0.17 |
| ACGAAGAT | 0.02 |
| ACACTGTC | -0.0634 |
| AAGCACTC | -0.0746 |
| GCGGAGCA | 0.0687 |
| AATTTCAC | -0.231 |
| ACTCGTCT | 0.122 |
| ACATCTTA | -0.117 |
| CGCATAGC | -0.13 |
| CGTTACAG | 0.0591 |
| GTTACACA | 0.241 |
| AGGGTTCA | 0.0521 |

| Sequence | PBM E-score |
| --- | --- |
| CTATTTTA | 0.0714 |
| ATCGTTAA | 0.00271 |
| CCAACAAG | -0.0377 |
| AGTGGTCC | 0.141 |
| CCTGGTAC | 0.0996 |
| GTAATGTA | -0.131 |
| AAGGCTAG | -0.127 |
| CGTTGGCC | -0.187 |
| ACCCTGTA | -0.0186 |
| ACTGTACT | -0.071 |
| ATAATAGG | 0.0975 |
| ATCATGTC | 0.256 |
| CTCTATTA | -0.0585 |
| CAGAGGGG | -0.22 |
| ATAAATTA | 0.116 |
| GTTGACGA | 0.00821 |
| CACCATAC | 0.0859 |
| ACCAGTCA | 0.298 |
| CAGTGCAA | 0.0571 |
| GTTTCTAA | -0.247 |
| CAAATTTG | -0.113 |
| TACACCCA | 0.222 |
| GGCGTTTA | -0.0151 |
| GTTTACTA | 0.132 |

| Sequence | PBM E-score |
| --- | --- |
| AAGTTAAC | -0.0842 |
| CGTATGTC | 0.036 |
| ACTATCTC | 0.0558 |
| CCAATCCC | 0.13 |
| CAACTCTC | -0.113 |
| GGACATCC | -0.0758 |
| CCTTGCGC | 0.055 |
| CCTACACG | -0.0152 |
| ACAGCAGA | -0.0126 |
| CCAAAGGG | 0.0819 |
| ATGTTGAC | 0.178 |
| GAGTCTAC | 0.0425 |
| CAGGGGGA | -0.0431 |
| GCTTCCCA | -0.0411 |
| CTATCAAC | 0.00465 |
| TTAATGAA | -0.0681 |
| CTATGCTA | 0.0846 |
| ATATCGAT | 0.232 |
| AAAGCTTC | -0.344 |
| CCAGGTCG | 0.00213 |
| AAGGTAGG | -0.0143 |
| CGATCATA | 0.0846 |
| GAGGAAAA | -0.197 |
| AACGGTCT | -0.153 |

| Sequence | PBM E-score |
| --- | --- |
| AAACACTG | 0.0888 |
| CAGGTCAA | -0.245 |
| GGACGCCC | -0.148 |
| TGGTGAAA | -0.108 |
| CAGGCAAG | -0.0917 |
| CTGCAGCA | 0.0732 |
| CGCCGCCC | 0.118 |
| CTTCAGTA | -0.0184 |
| TAAAACCA | -0.0353 |
| ACGCGCTA | -0.0771 |
| ATCTGCGC | 0.163 |
| GCATGCAA | 0.176 |
| CCACTCTC | -0.13 |
| CCGACCAA | 0.0363 |
| GGGCAGCA | 0.00846 |
| AGGCTCGA | -0.0488 |
| AGCCCATC | 0.22 |
| ACGACACT | 0.219 |
| ACAGTCGC | 0.0972 |
| ACGAGTGG | 0.0233 |
| AGTGATTG | 0.343 |
| CCGGTGGA | 0.0427 |
